Screen size: about 410,000 compounds; about 7,200 (1.8%) were called active. The inconclusive results got no clear call from the source; some entries with a clear call stand among them for comparison. Calls come from the whole dose curve; as a rule, active = well fitted activation curve with a large enough effect; inconclusive = small, poorly fitted or top-dose-only effect, or another doubt; inactive = no such curve, though single readings can be large or run the other way. Where the call is inconclusive, the potency comes from a doubtful curve fit.
Assay: qHTS of TDP-43 Inhibitors; note: nearly all actives have a fitted effect of over 50% in size; for growth rescue (activation): % of control where 0% means no effect
Conditions: TDP-43 expressing yeast growth rescue, BacTiter-Glo, 24 h; growth rescue (activation): at 46.1 µM (top of the series) unless noted
Procedure, shortened: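 Galactose-induced TDP-43 yeast, OD600=0.02, compound pinned; 24 hr, 30 deg C; BacTiter-Glo luminescence for growth. Inhibitors of TDP-43 toxicity read as activators.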
Potency is the fitted concentration of half-maximal effect; tags give direction and shape of the fitted curve.

Potency, active:
COc1ccc(-c2cc(-c3ccccc3O)[nH]n2)cc1OC 12.6 µM
Cc1cc(C)cc(Cn2ncc(Cl)c(Cl)c2=O)c1 17.8 µM
COc1cccc(-c2cc3nc(-c4ccccc4)cc(N4CCC5(CC4)OCCO5)n3n2)c1 15.8 µM
CCN(CC)c1nc2c(S(=O)(=O)c3ccccc3)nnn2c2ccc(Cl)cc12 12.6 µM
O=C(c1cc(=O)c2ccccc2o1)N1CCN(c2ccccc2F)CC1 14.1 µM

Potency, inconclusive:
O=C(Nc1ccccc1C(=O)NCc1ccco1)c1ccccc1 11.2 µM [activator, single point]
CCOc1ccccc1NC(=O)CSc1nnc(-c2ccncc2)o1 15.8 µM [activator, single point]
CSc1nc(Nc2ccc(C)cc2C)cc(-c2ccccc2)n1 3.55 µM [activator, partial curve]
Cc1cccc(Nc2nc(-c3ccc(O)cc3O)cs2)n1 14.1 µM [activator, single point]
Cc1nc2cc(C(=O)NCCC3=CCCCC3)ccc2n1-c1ccc(Br)cc1 35.5 µM [activator, single point]
Cc1ccc(C(=O)CCS(=O)(=O)c2ccc(F)cc2)cc1 22.4 µM [activator, partial curve, poor fit]
O=C(O)/C=C\c1cccc(-n2cnnn2)c1 0.316 µM [activator, full curve, poor fit]
Cc1cccc(N2CCN(C(=O)Cn3ncc4c3-c3cc(C)ccc3OC4)CC2C)c1 (stereo not given) 25.1 µM [activator, partial curve]
COC(=O)c1ccc(OCC2c3cc(OC)c(OC)cc3CCN2C(=O)c2ccccc2C)cc1 (stereo not given) 39.8 µM [activator, partial curve, poor fit]
Cc1cc(C(=O)CSc2nnc(N)s2)c(C)n1CCc1ccc(Cl)cc1 12.6 µM [activator, single point]
CC(C)(C)OC(=O)N1CCCC(C(=O)Nc2ccc(C(=O)N3CCCCC3)cc2)C1 (stereo not given) 3.55 µM [activator, partial curve]
Clc1ccccc1CNc1ncnc2c1nc1n2CCCC1 35.5 µM [activator, partial curve]
COc1cccc(OCc2cc(C(=O)N3CCN(c4ccccc4O)CC3)no2)c1 28.2 µM [activator, single point]
O=C(CCNC(=O)c1ccccc1Cl)Nc1nc2ccccc2[nH]1 35.5 µM [activator, single point]
CC(Cc1ccccc1)N1C(=O)c2cccc([N+](=O)[O-])c2C1=O (stereo not given) 11.2 µM [activator, partial curve]
CCCSc1cc(N)cc([N+](=O)[O-])c1 20 µM [activator, single point]
COc1ccccc1N1CCN(C(=O)c2sc3nc(-c4ccccc4)cn3c2C)CC1 35.5 µM [activator, single point]
CCCOc1cc(N(CC)CC)ccc1/C=C(/C#N)c1nc2ccc(C)cc2[nH]1 22.4 µM [activator, single point]
COCCSc1ccccc1C(=O)N1CCc2ccccc21 3.16 µM [activator, single point]
Cc1ccc(SCC(=O)Nc2ccc(N3CCOCC3)cc2)cc1C 10 µM [activator, partial curve]
Cc1cc(C)c2nc(N3CCC(C(=O)N4CCN(C(=O)c5ccco5)CC4)CC3)sc2c1 12.6 µM [activator, single point]
CCOC(=O)C1=C(C)N(CCCCCC(=O)O)C(=O)NC1c1ccccc1OS(=O)(=O)c1ccc(C)cc1 (stereo not given) 15.8 µM [activator, single point]
CCCCCCCCN1C(=O)[C@H](CC(=O)N2CCN(C(=O)C3CC3)CC2)C[C@@]2(C(=O)OC)CCCCC=C12 35.5 µM [activator, single point]
Cn1c(CSc2nc3ccccc3s2)n[nH]c1=S 22.4 µM [activator, single point]
COc1ccc(NC(=O)C[C@@H]2C(=O)N(c3ccc(OC)cc3)CC2(C)C)cc1 10 µM [activator, partial curve]

Potency, inactive:
COc1ccc(C(=O)N2CCC(n3nnc4cc(F)ccc43)CC2)cc1OC
CCOC(=O)CNC(=O)CSc1cn(CC(=O)N2CCCCCC2)c2ccccc12
Cc1cccc(C(=O)Nc2nnc(S(=O)(=O)N(C)Cc3ccc(Cl)cc3)s2)c1
COc1ccc(-c2nc3ccc([N+](=O)[O-])cc3[nH]2)cc1
OC(c1ccc(F)c(F)c1)c1nc(-c2cccc3cccnc23)cs1 (stereo not given)
Cc1cc(C)cc(NC(=O)c2cc(C)nc3c2c(C)nn3-c2ccccc2)c1
CC1CCN(C(=O)c2ccccc2SCC(=O)NCC2CCCCC2)CC1
Cc1ccc(C(=O)NCC(c2ccc3c(c2)OCO3)N2CCN(c3ccc(F)cc3)CC2)cc1 (stereo not given)
CCOc1ccccc1NC(=O)Cn1c(=O)n(Cc2nc(C)no2)c(=O)c2ccccc21
CCOC(=O)N/N=C/c1ccc(OCCSc2ccc(Cl)cc2)c(OCC)c1
COCCN(C(=O)COC(=O)c1oc2ccc(OC)cc2c1C)c1c(N)n(Cc2ccccc2)c(=O)[nH]c1=O
CCOc1ccccc1CNC(=O)c1ccc(N2Cc3ccccc3Oc3ncccc32)s1
CCCN1CCN(C(=O)Cn2c(-c3cccs3)cc3ccccc32)CC1

Growth rescue (activation), inconclusive:
COc1ccc(N2C(=O)C(F)(F)C2c2ccccc2F)cc1 (stereo not given) 30.3% [activator]
O=C(O)CC/C(=N\Nc1ccccc1[N+](=O)[O-])c1cccs1 76.5% [activator]
